Here are results for 89 compounds from PubChem BioAssay AID463173 (ICCB-Longwood Screening Facility, Harvard Medical School, 2010).

Molecules are shown by their SMILES. Among all 52,000 compounds or so, about 1,700 (3.3%) were called active. Cut-off read from the data, not from the text of the source: active = survival mostly below about 52% (no sharp cut-off); inactive = mostly above about 56%. The list shows a part of the results.

This experiment concerns Wild type. The experiment is described as follows: growth inhibition of S. aureus wild type versus tarO mutant, primary screen, teichoic acid synthesis inhibitors, RN4220, OD600 (AID 463173). Particulars: S. aureus RN4220 wild type/DeltatarO growth, OD600, 18 h, active compounds read low, screened at 18.75 µg/mL (by protocol).
As for `COc1ccc(Nc2nnc(-c3ccc(C)c(S(=O)(=O)N4CCOCC4)c3)c3ccccc23)cc1`, the survival is inactive: 84%.

With `CCOc1cc(C2c3c(oc4ccc(F)cc4c3=O)C(=O)N2Cc2ccc(C)cc2)ccc1O` (centres undefined), the survival is inactive: 141%.

As to `CCCCNC(=O)CSc1nc2n[nH]c(C)c2c(=N)n1-c1ccccc1CC`, the survival is inactive: 72%.

Consider `COc1ccc(C2CC(=O)c3c([nH]c(C(=O)OCc4ccccc4)c3C)C2)cc1OC` (centres undefined), for which the survival was inactive: 94%.

As to `O=C(COc1ccccc1F)Nc1nnc(S(=O)(=O)N2CCCCCC2)s1`, the survival was inactive: 64%.

With `Cc1ccccc1Cc1c(C)nc2nc(SCC(=O)NC(C)c3ccccc3)nn2c1C` (centres undefined), the survival was inactive: 80%.

Consider `CCC1CN(C(=O)Nc2cccc3c2CCCC3)c2cc(C)ccc2O1` (centres undefined), for which the survival was inactive: 79%.

With `CCOC(=O)c1c(C)oc2nc(C)nc(NCCCN3CCN(c4cccc(C)c4)C(C)C3)c12` (centres undefined), the survival is inactive: 127%.

As to `O=C(NCCCN1CCN(c2ccccc2)CC1)c1cc2c(s1)-c1ccccc1OC2`, the survival was inactive: 69%.

`O=C1NC(=O)C(Nc2ccccc2Cl)S1` (centres undefined): the survival is inactive: 108%.

Regarding `CCCCNC(=O)C1CCN(Cc2nc(-c3ccc(OC)c(OC)c3)oc2C)CC1`, the survival is inactive: 88%.

On to `CCCOc1cccc(C2c3c(oc4ccc(F)cc4c3=O)C(=O)N2Cc2ccc3c(c2)OCO3)c1` (centres undefined), for which the survival was inactive: 64%.

As to `Cc1nc(-n2nc(C)c(Cc3ccc4c(c3)OCO4)c2C)sc1C(=O)Nc1ccc(Cl)cc1`, the survival is inactive: 121%.

As for `Cc1ccc(-n2cnc3cc(C(=O)NCc4ccccc4Cl)ccc32)c(C)c1`, the survival was active: 10%.

For `Cc1ccc2nc(N3CCN(c4ccccc4F)CC3)c3nnnn3c2c1`, the survival was inactive: 76%.

In the case of `COc1ccc(CC(=O)NCc2ccc3c(c2)CCN3C(=O)c2cccc(C)c2)cc1`, the survival was active: -6%.

On to `CCCCN(Cc1ccco1)C(=O)Cn1ncc2c([nH]c3ccccc32)c1=O`, for which the survival was inactive: 148%.

As for `CN1CCSc2ccc(C(=O)NCc3ccccc3)cc21`, the survival is inactive: 72%.

Turning to `O=C(c1ccco1)n1nc(-c2ccc(Cl)cc2)nc1NCc1ccc(F)cc1`, the survival was inactive: 70%.

`Cc1cccc(Cn2cccc2CNS(=O)(=O)c2ccc(C)c(C)c2)c1`: the survival is inactive: 99%.

For the compound `CSc1ccc(-c2ccc3c(c2)OCCO3)nn1`, the survival was inactive: 93%.

As to `Cc1cccc(NS(=O)(=O)c2ccc3nc(-c4ccccc4)[nH]c3c2)c1C`, the survival is inactive: 129%.

Regarding `CCOC(=O)c1scc(-c2ccc(C)cc2)c1S(=O)(=O)Nc1ccc(OC)c(Cl)c1`, the survival was inactive: 90%.

As to `Cc1ccc(NC(=O)Cn2c(=O)n(CCC(=O)NCc3ccccc3Cl)c(=O)c3ccccc32)c(C)c1`, the survival was inactive: 104%.

Turning to `CC(C)OC(=O)CCC1(C(=O)O)CCC(=O)NC1` (centres undefined), the survival was inactive: 103%.

On to `COc1ccc(C2C(C(=O)Nc3ccccc3)=C(C)Nc3nc(-c4ccccc4Cl)nn32)cc1OC` (centres undefined), for which the survival is inactive: 77%.

As to `CCOCCCNc1nc2cc(OC)c(OC)cc2c2nc(-c3ccccc3)nn12`, the survival was inactive: 69%.

For the compound `Clc1ccccc1Nc1ncnc2c1nc1n2CCCCC1`, the survival is active: 0%.

On to `O=C(Nc1ccc2nc(SCCOc3ccccc3)sc2c1)c1ccc2c(c1)OCO2`, for which the survival was inactive: 91%.

In the case of `Cc1cccc(Cn2c(=O)n(CC3CCC(C(=O)N4CCC(C)CC4)CC3)c(=O)c3sccc32)c1` (centres undefined), the survival was inactive: 83%.

With `O=C(CSc1cn(CC(=O)N2CCCC2)c2ccccc12)Nc1ccccc1C(F)(F)F`, the survival is inactive: 93%.

For the compound `Cc1ccc(C(=O)CSc2nc3ccccc3c(=O)n2Cc2ccco2)cc1`, the survival is inactive: 100%.

Regarding `COc1cc2[nH]c(=O)n(CCCCCC(=O)N3CCN(c4ccc(Cl)cc4)CC3)c(=O)c2cc1OC`, the survival was inactive: 95%.

`Cc1ccc(CNC(=O)CN(c2cc(C)cc(C)c2)S(=O)(=O)c2c(C)noc2C)cc1`: the survival was inactive: 96%.

As to `Cc1nc2cc(-c3ccccc3)nn2c(C)c1CCC(=O)NCc1cccc(Cl)c1`, the survival was inactive: 84%.

With `CC(C)NS(=O)(=O)c1ccc(N2C(=O)c3ccccc3C2=O)cc1`, the survival was inactive: 99%.

On to `O=C(Nc1cccc(Br)c1)c1cc(-c2ccc3c(c2)OCCO3)on1`, for which the survival is inactive: 80%.

Consider `COC(=O)c1ccccc1NC(=O)c1ccc2c(Cl)c3c(nc2c1)CCCC3`, for which the survival was inactive: 81%.

As for `COc1ccc2c(c1)cc1c(=O)n(CC(=O)NCCc3ccccc3)nc(C)n12`, the survival is inactive: 81%.

For the compound `CCOC(=O)Cc1ccc(NC(=O)N2CC(C)Oc3ccc(Cl)cc32)cc1` (centres undefined), the survival is inactive: 88%.

On to `COc1cc2nc(NCc3ccccc3)n3nc(-c4ccccc4)nc3c2cc1OC`, for which the survival was inactive: 81%.

On to `Cc1nc2ccn(Cc3cccs3)c(=O)c2cc1C(=O)N1CCN(c2ccccc2)CC1`, for which the survival is inactive: 82%.

For the compound `C=CCN(CC=C)C(=O)CN1C(=O)c2ccccc2C1=O`, the survival is inactive: 107%.

As to `Cc1ccc2c(c1)N(CC(=O)NCCCN1CCCCC1C)C(=O)c1cccnc1O2` (centres undefined), the survival was inactive: 97%.

On to `COc1ccc(S(=O)(=O)N2CCC(NC(=O)c3ccccc3)CC2)cc1`, for which the survival was inactive: 109%.

`CCOC(=O)N1CCN(Cc2nc3cc(NC(=O)c4ccccc4OC)ccc3n2C(C)C)CC1`: the survival is inactive: 88%.

In the case of `Cc1ccc(-n2c(=O)c3ccc(C(=O)NCc4ccco4)cc3n(Cc3ccc(Cl)cc3)c2=O)cc1`, the survival is inactive: 80%.

Regarding `Cc1ccccc1CNCCSc1nnnn1-c1ccccc1`, the survival is inactive: 82%.

On to `COc1ccc(-n2c(=O)c3ccc(C(=O)NCc4ccc(C)cc4)cc3n(Cc3ccc(C)cc3)c2=O)cc1`, for which the survival is inactive: 82%.

Consider `COc1ccc(CNC(=O)c2nc(S(=O)(=O)Cc3ccccc3)ncc2Cl)cc1`, for which the survival was inactive: 34%.

With `COc1ccc(CNC(=O)CCc2c(C)c3cc4c(C)coc4cc3oc2=O)cc1`, the survival is inactive: 81%.

Turning to `Cc1ccc(-n2nc3c(=O)n(CC(=O)NCc4ccco4)nc(C)c3c2C)cc1`, the survival is inactive: 63%.

As for `Cc1cccc(NC(=O)/C(=C\c2ccco2)NC(=O)c2cccs2)c1`, the survival is inactive: 114%.

For the compound `Cc1nc2nc(SCC(=O)N(Cc3ccccc3)C(C)C)nn2c(C)c1Cc1ccccc1Cl`, the survival is inactive: 63%.

In the case of `COc1ccc(-c2nc3ccccc3o2)cc1N`, the survival was inactive: 137%.

`Cc1ccc(-n2c3c(cc(C(=O)NCc4ccco4)c2=O)C(=O)CCC3)cc1`: the survival was inactive: 85%.

As to `Cc1cc(C)c2sc(N3CCN(C(=O)C4CC4)CC3)nc2c1`, the survival is inactive: 134%.

For the compound `CSc1ccc(CCNc2ncnc3onc(-c4ccc(Cl)cc4)c23)cc1`, the survival is inactive: 93%.

Regarding `Cc1cc(C)c(NC(=O)Cn2c(=O)n(-c3ccc(F)cc3)c(=O)c3c(C)c(C(=O)N(C)C)sc32)c(C)c1`, the survival is inactive: 93%.

With `O=C(Nc1ccccc1O)c1cccc(S(=O)(=O)Nc2ccccc2O)c1`, the survival is inactive: 108%.

Regarding `CCc1ccc2ncc3c(-c4ccc(C)cc4)nn(CC(=O)Nc4ccc(C)cc4)c3c2c1`, the survival is inactive: 47%.

Turning to `COc1ccc(Oc2nc3c(C)cccn3c(=O)c2/C=C(\C#N)c2nc3ccccc3[nH]2)cc1`, the survival is inactive: 71%.

Turning to `Cc1cc(NC(=O)CC(C)C)c(=O)n(Cc2ccccc2F)c1`, the survival is inactive: 107%.

In the case of `COC(=O)c1cc2occc2n1Cc1nc(-c2cccc(Br)c2)oc1C`, the survival is inactive: 78%.

In the case of `COc1ccc(C(=O)c2sc(Nc3cc(Cl)ccc3C)nc2N)cc1OC`, the survival was inactive: 129%.

As for `CCOc1cc(C2Sc3ccccc3NC3=C2C(=O)c2ccccc23)ccc1O` (centres undefined), the survival is inactive: 36%.

Regarding `COc1ccc(C(=O)Nc2ccccc2-c2nc3ccccc3s2)c(OC)c1`, the survival is inactive: 124%.

Consider `O=C(CSC1CC(=O)N(c2ccccc2)C1=O)Nc1ccc(F)cc1` (centres undefined), for which the survival was inactive: 82%.

With `CCOC(=O)c1ccc(NC(=O)CC2C(=O)N(c3ccc(F)cc3)C(=O)N2Cc2ccc(C)cc2)cc1` (centres undefined), the survival is inactive: 61%.

`COc1ccc(Nc2cc(C(=O)NCCCN(C)Cc3ccccc3)c3ccccc3n2)cc1`: the survival was inactive: 120%.

For the compound `CCOC(=O)c1cnc2ccc(Cl)cc2c1Nc1ccc(OCC)cc1`, the survival was active: -3%.

`CN1C(=O)CC(NCc2ccc(S(N)(=O)=O)cc2)C1=O` (centres undefined): the survival was inactive: 103%.

Turning to `CC(=O)c1ccc(NC(=O)CCc2nc(-c3ccc(C)cc3)no2)cc1`, the survival was inactive: 91%.

Consider `CC(=O)c1ccc(NC(=O)CSc2nc(C3CCCC3)nc3c2c(=O)n(C)c(=O)n3C)cc1`, for which the survival is inactive: 70%.

Turning to `Cc1nc(-n2nc(C)c(CCC(C)C)c2C)sc1C(=O)Nc1ccc(Br)cc1`, the survival is inactive: 88%.

Take `Cc1cccn2c(=O)cc(COc3cccc(NC(=O)COc4ccccc4)c3)nc12`: the survival was inactive: 80%.

Consider `CC(C)OCCCNC(=O)CSc1c2c(nc3ccc(Cl)cc13)CCCC2`, for which the survival is inactive: 75%.

On to `COc1cccc(-c2nc3c(c(SCC(=O)Nc4cc(C)ccc4C)n2)Cc2c(CO)cnc(C)c2O3)c1`, for which the survival is inactive: 88%.

For the compound `Cc1cc(=O)[nH]c(NCCO)n1`, the survival was inactive: 100%.

As to `COc1ccc(CCNC(=O)CCCn2c(SCC(N)=O)nc3cc4c(cc3c2=O)OCO4)cc1OC`, the survival is inactive: 81%.

As for `CCOC(=O)N1CCc2c(sc3c2c(=O)n(Cc2ccccc2)c(=O)n3Cc2ccc(C)cc2)C1`, the survival was inactive: 96%.

In the case of `COc1ccc(NC(=O)C2(c3ccc(OC)cc3)CCOCC2)cc1`, the survival is inactive: 103%.

`CC1CCN(c2oc(-c3ccc(COc4ccc(Cl)cc4)o3)nc2C#N)CC1`: the survival was inactive: 110%.

In the case of `CCCCOc1ccccc1C(=O)Nc1onc2c1CCCC2`, the survival is inactive: 85%.

Turning to `CSc1ccc(CNC(=O)CCc2c(C)nn(-c3ccc(N4CCCC4)nn3)c2C)cc1`, the survival is inactive: 65%.

Take `COC(=O)C12CC3CC(CC(C(=O)OC)(C1)C3=O)C2=O`: the survival is inactive: 103%.

As to `COc1ccc(CNC(=O)C2=C(C)C(=O)OC23CCN(C(C)=O)CC3)cc1`, the survival was inactive: 113%.

As to `Cc1cc(C)c2nc(NC(=O)c3ccc(S(=O)(=O)N4CCC(C)CC4)cc3)sc2c1`, the survival is inactive: 79%.

Turning to `CCOc1ccccc1CNC(=O)c1ccc(Cn2c(SCc3ccccc3)nc3cccnc32)cc1`, the survival was inactive: 69%.
